# Data as given in the BET-seq Pho4 binding data (Le et al. 2018).
# This is one part of the list. Values were computed here from the reads of four pooled replicates and scatter widely.
# Target: T1, Pho4 (S. cerevisiae) (UniProt P07270)
# T1 sequence: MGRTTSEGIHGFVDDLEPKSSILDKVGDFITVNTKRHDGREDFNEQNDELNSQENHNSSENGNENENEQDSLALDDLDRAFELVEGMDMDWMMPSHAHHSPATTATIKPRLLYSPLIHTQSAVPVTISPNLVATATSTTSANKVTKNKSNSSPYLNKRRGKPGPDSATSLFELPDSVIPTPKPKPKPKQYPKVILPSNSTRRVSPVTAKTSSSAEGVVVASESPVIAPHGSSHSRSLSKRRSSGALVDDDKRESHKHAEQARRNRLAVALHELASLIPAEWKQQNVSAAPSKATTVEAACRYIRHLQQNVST
# Assay: relative binding free energy (BET-seq); higher = weaker binding
# Settings: reference: library average
row,Sequence,relative binding free energy
1,CTTATCACGTGGGGGG,0.1 kcal/mol
2,ATTTTCACGTGGCAGA,0.21 kcal/mol
3,TTTGGCACGTGAAGCA,0.07 kcal/mol
4,CGTGACACGTGTTAAG,0 kcal/mol
5,GTTAACACGTGAGTGT,0.17 kcal/mol
6,GGAGTCACGTGGCGAG,0.19 kcal/mol
7,CTGCGCACGTGCGGTG,-0.14 kcal/mol
8,TCAGTCACGTGGGGTC,0.04 kcal/mol
9,TTGATCACGTGTTGAA,0.15 kcal/mol
10,TGTATCACGTGCGAAT,0.29 kcal/mol
11,ACTATCACGTGTGGGT,0.19 kcal/mol
12,GAAGGCACGTGATGGT,0.14 kcal/mol
13,TGAGACACGTGAGGTC,0.35 kcal/mol
14,TTGATCACGTGAGGGT,0.37 kcal/mol
15,TATGGCACGTGAGGAC,0.06 kcal/mol
16,AGAAACACGTGGAGTG,-0.04 kcal/mol
17,TCGTTCACGTGGTAAT,0.18 kcal/mol
18,GATGTCACGTGTGTTA,0.03 kcal/mol
19,TGTGACACGTGTAGCT,0.07 kcal/mol
20,GGGGGCACGTGAGCTG,0.15 kcal/mol
21,GGTATCACGTGGAGTA,0.07 kcal/mol
22,TAATGCACGTGATATG,0.06 kcal/mol
23,TAGGCCACGTGGATTT,-0.02 kcal/mol
24,CGGGACACGTGTGGGC,0.23 kcal/mol
25,TGTTTCACGTGTCCGT,0.33 kcal/mol

row,Sequence,relative binding free energy
1,GGGAGCACGTGCGATT,-0.05 kcal/mol
2,TTGAGCACGTGTGGAA,0.07 kcal/mol
3,CTGCCCACGTGGGGGG,-0.3 kcal/mol
4,GTGATCACGTGGATTT,0.13 kcal/mol
5,CTGCACACGTGGGGAG,0.08 kcal/mol
6,GTGACCACGTGTAGGG,-0.02 kcal/mol
7,GGTAGCACGTGAGCGG,0.07 kcal/mol
8,GTCAGCACGTGTAGTT,0.1 kcal/mol
9,AAGGGCACGTGTTAAA,-0.19 kcal/mol
10,GGTTGCACGTGCTTAT,-0.05 kcal/mol
11,GGCATCACGTGTTGGT,0.1 kcal/mol
12,GAGGGCACGTGAGTCG,0.23 kcal/mol
13,GATGTCACGTGGCATG,0.01 kcal/mol
14,AGAATCACGTGTGGAA,0.25 kcal/mol
15,GGTCTCACGTGGGAAT,0.18 kcal/mol
16,GCAGACACGTGTGGGG,0.23 kcal/mol
17,TATGGCACGTGATGGT,0.07 kcal/mol
18,AGAGGCACGTGTAAAG,-0.03 kcal/mol
19,TAGTGCACGTGGTGTA,-0.03 kcal/mol
20,ATGGGCACGTGCATAG,-0.26 kcal/mol
21,AGGAGCACGTGGGTAG,-0.3 kcal/mol
22,TTTTACACGTGACAGT,0.25 kcal/mol
23,GTAGTCACGTGACAGG,0.26 kcal/mol
24,ATCGACACGTGAGGTG,0.22 kcal/mol
25,TTACACACGTGGTTTT,-0.07 kcal/mol

row,Sequence,relative binding free energy
1,TTTGGCACGTGGTGAT,-0.15 kcal/mol
2,AATGTCACGTGGAGTA,0.03 kcal/mol
3,TGGTGCACGTGGTCAG,-0.01 kcal/mol
4,TGGGCCACGTGTTTGG,-0.07 kcal/mol
5,ACTTTCACGTGAGGGA,0.29 kcal/mol
6,TGCTGCACGTGGTCTT,-0.17 kcal/mol
7,TAGAACACGTGCGGGT,-0.09 kcal/mol
8,TGTGGCACGTGTTTAT,0.1 kcal/mol
9,TATATCACGTGTAGGC,0.25 kcal/mol
10,ATGCGCACGTGGGGTT,-0.24 kcal/mol
11,TTCATCACGTGTCGTG,0.24 kcal/mol
12,ATTTACACGTGAGGAA,0.29 kcal/mol
13,AGAGGCACGTGGCTGT,-0.27 kcal/mol
14,TTCGGCACGTGTCTAG,0.12 kcal/mol
15,TTTAACACGTGTCGTC,0.15 kcal/mol
16,GTTGTCACGTGTACGG,0.27 kcal/mol
17,TTGGACACGTGTGCAG,0.07 kcal/mol
18,TAGGTCACGTGGATCT,0.03 kcal/mol
19,ATGTGCACGTGGGATC,-0.11 kcal/mol
20,GACGTCACGTGGGTTG,-0.12 kcal/mol
21,CGGGACACGTGGGCTT,0.11 kcal/mol
22,GAATTCACGTGTATGG,0.22 kcal/mol
23,TCAGGCACGTGTGTGC,-0.06 kcal/mol
24,CAAGGCACGTGGTTAT,-0.17 kcal/mol
25,TCAAACACGTGTGTGT,-0.13 kcal/mol

row,Sequence,relative binding free energy
1,TGAGTCACGTGGGTAA,-0.07 kcal/mol
2,TAAGTCACGTGAATGA,0.35 kcal/mol
3,TTAAACACGTGGATGT,-0.09 kcal/mol
4,GTTTACACGTGCGGGT,0.17 kcal/mol
5,TACGACACGTGGGTTT,-0.16 kcal/mol
6,TCATACACGTGGTAGT,-0.01 kcal/mol
7,GAGGTCACGTGAGTGG,0.37 kcal/mol
8,ATCGACACGTGGTGTA,-0.06 kcal/mol
9,GGCGTCACGTGTATTG,0.26 kcal/mol
10,ACGTGCACGTGTTTAG,0.01 kcal/mol
11,GTGTGCACGTGTCCGG,0.03 kcal/mol
12,GGTGGCACGTGGATAA,0.06 kcal/mol
13,GTACGCACGTGTTGGC,-0.03 kcal/mol
14,CAGGGCACGTGAGGGT,0.12 kcal/mol
15,GTTCACACGTGGGAGT,0.08 kcal/mol
16,AAACGCACGTGTTTGT,-0.08 kcal/mol
17,ATGGGCACGTGAAATT,0.32 kcal/mol
18,GTGCACACGTGATTGT,0.24 kcal/mol
19,ATTGACACGTGCGTAT,-0.13 kcal/mol
20,TAGTTCACGTGACGGT,0.49 kcal/mol
21,GTATTCACGTGGGCCT,0.22 kcal/mol
22,CGTCTCACGTGGTTTT,0.24 kcal/mol
23,CATATCACGTGCTTGT,0.26 kcal/mol
24,GGAGTCACGTGAGGTC,0.25 kcal/mol
25,ATCTTCACGTGTTTGG,0.25 kcal/mol

row,Sequence,relative binding free energy
1,GGCGACACGTGAGGGA,0.33 kcal/mol
2,AGTATCACGTGATTTG,0.23 kcal/mol
3,GGCATCACGTGGGCAG,-0.02 kcal/mol
4,AGATTCACGTGTGAGA,0.41 kcal/mol
5,TAATGCACGTGGTCGT,-0.09 kcal/mol
6,CTGCGCACGTGTGGGT,-0.19 kcal/mol
7,TTAGGCACGTGTGTAC,-0.06 kcal/mol
8,GGACTCACGTGAGGTG,0.33 kcal/mol
9,TATAGCACGTGAGCAG,0.15 kcal/mol
10,GGGTACACGTGGGCGG,-0.02 kcal/mol
11,TTCGGCACGTGAGAAT,0.16 kcal/mol
12,AATGTCACGTGTGATT,0.2 kcal/mol
13,ATGTTCACGTGATAAG,0.29 kcal/mol
14,TAATTCACGTGATATC,0.46 kcal/mol
15,AGAGTCACGTGTTTGG,0.2 kcal/mol
16,CCGGCCACGTGGGGGG,-0.27 kcal/mol
17,AAGGGCACGTGTAAGG,-0.08 kcal/mol
18,CTGGGCACGTGGAAGT,-0.2 kcal/mol
19,TTCCGCACGTGGGTTG,-0.25 kcal/mol
20,GCAGGCACGTGAGGGG,0.15 kcal/mol
21,GGCTTCACGTGTTAGG,0.13 kcal/mol
22,TGGTACACGTGGGGGG,-0.12 kcal/mol
23,TGGTTCACGTGCTTTT,0.31 kcal/mol
24,AATGGCACGTGTTCTG,-0.11 kcal/mol
25,AGGGTCACGTGCTGTG,0.11 kcal/mol

row,Sequence,relative binding free energy
1,GGTGGCACGTGCTAGA,-0.2 kcal/mol
2,ATTTGCACGTGAGGGA,0.21 kcal/mol
3,TGAAACACGTGGGATT,-0.12 kcal/mol
4,GGGGGCACGTGACTGT,0.07 kcal/mol
5,AGTTACACGTGTTACT,0.21 kcal/mol
6,AGGGGCACGTGTTACA,-0.18 kcal/mol
7,GTTACCACGTGATGTT,0.14 kcal/mol
8,GGAGTCACGTGTATTG,0.03 kcal/mol
9,GTAGTCACGTGGGGAA,0.01 kcal/mol
10,GGGCGCACGTGTGGCG,-0.02 kcal/mol
11,GTAAGCACGTGGTATA,-0.12 kcal/mol
12,TCGGACACGTGGATGG,-0.02 kcal/mol
13,CGTCTCACGTGATAGT,0.48 kcal/mol
14,GGGGTCACGTGGTTTT,0.32 kcal/mol
15,TACTGCACGTGTGATG,0.16 kcal/mol
16,TTGGGCACGTGACACG,0.01 kcal/mol
17,TAGAGCACGTGTGATG,-0.01 kcal/mol
18,TGGCGCACGTGCTGAG,-0.04 kcal/mol
19,TCATACACGTGTCGGG,0.31 kcal/mol
20,AGGGACACGTGTAAAT,0.22 kcal/mol
21,TGATACACGTGTCAGG,0.12 kcal/mol
